{"source": "the supplement of paper PMC8728848", "binders": {"B1": {"name": "mLPHN-1 (Mus musculus), Q80TR1 (protein)", "chain": "MARLAAALWSLCVTTVLVTSATQGLSRAGLPFGLMRRELACEGYPIELRCPGSDVIMVENANYGRTDDKICDADPFQMENVQCYLPDAFKIMSQRCNNRTQCVVVAGSDAFPDPCPGTYKYLEVQYDCVPYIFVCPGTLQKVLEPTSTHESEHQSGAWCKDPLQAGDRIYVMPWIPYRTDTLTEYASWEDYVAARHTTTYRLPNRVDGTGFVVYDGAVFYNKERTRNIVKYDLRTRIKSGETVINTANYHDTSPYRWGGKTDIDLAVDENGLWVIYATEGNNGRLVVSQLNPYTLRFEGTWETGYDKRSASNAFMVCGVLYVLRSVYVDDDSEAAGNRVDYAFNTNANREEPVSLAFPNPYQFVSSVDYNPRDNQLYVWNNYFVVRYSLEFGPPDPSAGPATSPPLSTTTTARPTPLTSTASPAATTPLRRAPLTTHPVGAINQLGPDLPPATAPAPSTRRPPAPNLHVSPELFCEPREVRRVQWPATQQGMLVERPCPKGTRGIASFQCLPALGLWNPRGPDLSNCTSPWVNQVAQKIKSGENAANIASELARHTRGSIYAGDVSSSVKLMEQLLDILDAQLQALRPIERESAGKNYNKMHKRERTCKDYIKAVVETVDNLLRPEALESWKDMNATEQVHTATMLLDVLEEGAFLLADNVREPARFLAAKQNVVLEVTVLNTEGQVQELVFPQEYPSENSIQLSANTIKQNSRNGVVKVVFILYNNLGLFLSTENATVKLAGEAGTGGPGGASLVVNSQVIAASINKESSRVFLMDPVIFTVAHLEAKNHFNANCSFWNYSERSMLGYWSTQGCRLVESNKTHTTCACSHLTNFAVLMAHREIYQGRINELLLSVITWVGIVISLVCLAICISTFCFLRGLQTDRNTIHKNLCINLFLAELLFLVGIDKTQYEVACPIFAGLLHYFFLAAFSWLCLEGVHLYLLLVEVFESEYSRTKYYYLGGYCFPALVVGIAAAIDYRSYGTEKACWLRVDNYFIWSFIGPVSFVIVVNLVFLMVTLHKMIRSSSVLKPDSSRLDNIKSWALGAIALLFLLGLTWAFGLLFINKESVVMAYLFTTFNAFQGVFIFVFHCALQKKVHKEYSKCLRHSYCCIRSPPGGTHGSLKTSAMRSNTRYYTGTQSRIRRMWNDTVRKQTESSFMAGDINSTPTLNRGTMGNHLLTNPVLQPRGGTSPYNTLIAESVGFNPSSPPVFNSPGSYREPKHPLGGREACGMDTLPLNGNFNNSYSLRSGDFPPGDGGPEPPRGRNLADAAAFEKMIISELVHNNLRGASGGAKGPPPEPPVPPVPGVSEDEAGGPGSADRAEIELLYKALEEPLLLPRAQSVLYQSDLDESESCTAEDGATSRPLSSPPGRDSLYASGANLRDSPSYPDSSPEGPNEALPPPPPAPPGPPEIYYTSRPPALVARNPLQGYYQVRRPSHEGYLAAPSLEGPGPDGDGQMQLVTSL"}}, "assay_in_all_cases": "glycan array binding signal (z-score within array); higher = stronger binding", "details_in_all_cases": "glycan notation: IUPAC condensed, linker removed", "key": {"[1]": {"molecular_target": "Gal(b1-4)GlcNAc(b1-3)Gal(b1-4)GlcNAc(b1-3)Gal(b1-4)GlcNAc", "method_in_brief": "(§1)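 The binding signal is a Z-score computed within each array. Data were drawn from 3228 arrays in the Consortium for Functional Glycomics database, restricted to those with a known protein sequence. Scores were averaged over arrays of the same protein sequence at different concentrations or buffers, and over linkers, and negative values can be taken as non-binding.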"}, "[2]": {"molecular_target": "Gal(b1-4)GlcNAc(b1-3)Gal(b1-4)[Fuc(a1-3)]GlcNAc(b1-3)Gal(b1-4)[Fuc(a1-3)]GlcNAc", "method_in_brief": "as §1"}, "[3]": {"molecular_target": "Gal(b1-4)GlcNAc(b1-3)GalNAc", "method_in_brief": "as §1"}, "[4]": {"molecular_target": "Gal(b1-4)GlcNAc(b1-3)[Gal(b1-4)GlcNAc(b1-6)]Gal(b1-4)GlcNAc", "method_in_brief": "as §1"}, "[5]": {"molecular_target": "Gal(b1-4)GlcNAc(b1-3)[GlcNAc(b1-6)]Gal(b1-4)GlcNAc", "method_in_brief": "as §1"}, "[6]": {"molecular_target": "Gal(b1-4)GlcNAc(b1-6)Gal(b1-4)GlcNAc", "method_in_brief": "as §1"}, "[7]": {"molecular_target": "Gal(b1-4)GlcNAc(b1-6)Gal(b1-4)GlcNAc(b1-6)GalNAc", "method_in_brief": "as §1"}, "[8]": {"molecular_target": "Gal(b1-4)GlcNAc(b1-6)GalNAc", "method_in_brief": "as §1"}, "[9]": {"molecular_target": "Gal(b1-4)GlcNAc(b1-6)[Gal(b1-3)]GalNAc", "method_in_brief": "as §1"}, "Gal3S(b1-3)GalNAc": {"molecular_target": "Gal3S(b1-3)GalNAc", "method_in_brief": "as §1"}, "Gal3S(b1-3)GlcNAc": {"molecular_target": "Gal3S(b1-3)GlcNAc", "method_in_brief": "as §1"}, "[10]": {"molecular_target": "Gal3S(b1-3)[Fuc(a1-4)]GlcNAc", "method_in_brief": "as §1"}, "Gal3S(b1-4)Glc": {"molecular_target": "Gal3S(b1-4)Glc", "method_in_brief": "as §1"}, "Gal3S(b1-4)Glc6S": {"molecular_target": "Gal3S(b1-4)Glc6S", "method_in_brief": "as §1"}, "Gal3S(b1-4)GlcNAc": {"molecular_target": "Gal3S(b1-4)GlcNAc", "method_in_brief": "as §1"}, "Gal3S(b1-4)GlcNAc6S": {"molecular_target": "Gal3S(b1-4)GlcNAc6S", "method_in_brief": "as §1"}, "[11]": {"molecular_target": "Gal3S(b1-4)[Fuc(a1-3)]Glc", "method_in_brief": "as §1"}, "Gal3S4S(b1-4)GlcNAc": {"molecular_target": "Gal3S4S(b1-4)GlcNAc", "method_in_brief": "as §1"}, "Gal3S6S(b1-4)GlcNAc": {"molecular_target": "Gal3S6S(b1-4)GlcNAc", "method_in_brief": "as §1"}, "Gal3S6S(b1-4)GlcNAc6S": {"molecular_target": "Gal3S6S(b1-4)GlcNAc6S", "method_in_brief": "as §1"}, "Gal4S(b1-4)GlcNAc": {"molecular_target": "Gal4S(b1-4)GlcNAc", "method_in_brief": "as §1"}, "Gal4S6S(b1-4)GlcNAc": {"molecular_target": "Gal4S6S(b1-4)GlcNAc", "method_in_brief": "as §1"}, "Gal6S(b1-4)Glc": {"molecular_target": "Gal6S(b1-4)Glc", "method_in_brief": "as §1"}, "Gal6S(b1-4)Glc6S": {"molecular_target": "Gal6S(b1-4)Glc6S", "method_in_brief": "as §1"}, "Gal6S(b1-4)GlcNAc": {"molecular_target": "Gal6S(b1-4)GlcNAc", "method_in_brief": "as §1"}, "Gal6S(b1-4)GlcNAc6S": {"molecular_target": "Gal6S(b1-4)GlcNAc6S", "method_in_brief": "as §1"}, "GalNAc(a1-3)Gal": {"molecular_target": "GalNAc(a1-3)Gal", "method_in_brief": "as §1"}, "GalNAc(a1-3)GalNAc": {"molecular_target": "GalNAc(a1-3)GalNAc", "method_in_brief": "as §1"}, "GalNAc(b1-3)Gal": {"molecular_target": "GalNAc(b1-3)Gal", "method_in_brief": "as §1"}, "[12]": {"molecular_target": "GalNAc(b1-3)Gal(a1-4)Gal(b1-4)GlcNAc", "method_in_brief": "as §1"}}, "note": "The list shows a part of the results.", "data": [{"binder": "B1", "values": [{"measurement": "glycan array binding signal (z-score)", "setting": "[1]", "value": -0.382}, {"measurement": "glycan array binding signal (z-score)", "setting": "[2]", "value": 0.078}, {"measurement": "glycan array binding signal (z-score)", "setting": "[3]", "value": -0.005}, {"measurement": "glycan array binding signal (z-score)", "setting": "[4]", "value": 0.085}, {"measurement": "glycan array binding signal (z-score)", "setting": "[5]", "value": 0.164}, {"measurement": "glycan array binding signal (z-score)", "setting": "[6]", "value": -0.114}, {"measurement": "glycan array binding signal (z-score)", "setting": "[7]", "value": -0.313}, {"measurement": "glycan array binding signal (z-score)", "setting": "[8]", "value": -0.096}, {"measurement": "glycan array binding signal (z-score)", "setting": "[9]", "value": -0.368}, {"measurement": "glycan array binding signal (z-score)", "setting": "Gal3S(b1-3)GalNAc", "value": -0.307}, {"measurement": "glycan array binding signal (z-score)", "setting": "Gal3S(b1-3)GlcNAc", "value": 2.08}, {"measurement": "glycan array binding signal (z-score)", "setting": "[10]", "value": -0.155}, {"measurement": "glycan array binding signal (z-score)", "setting": "Gal3S(b1-4)Glc", "value": -0.362}, {"measurement": "glycan array binding signal (z-score)", "setting": "Gal3S(b1-4)Glc6S", "value": -0.26}, {"measurement": "glycan array binding signal (z-score)", "setting": "Gal3S(b1-4)GlcNAc", "value": 0.39}, {"measurement": "glycan array binding signal (z-score)", "setting": "Gal3S(b1-4)GlcNAc6S", "value": -0.192}, {"measurement": "glycan array binding signal (z-score)", "setting": "[11]", "value": 0.673}, {"measurement": "glycan array binding signal (z-score)", "setting": "Gal3S4S(b1-4)GlcNAc", "value": 0.041}, {"measurement": "glycan array binding signal (z-score)", "setting": "Gal3S6S(b1-4)GlcNAc", "value": 0.333}, {"measurement": "glycan array binding signal (z-score)", "setting": "Gal3S6S(b1-4)GlcNAc6S", "value": -0.407}, {"measurement": "glycan array binding signal (z-score)", "setting": "Gal4S(b1-4)GlcNAc", "value": 0.468}, {"measurement": "glycan array binding signal (z-score)", "setting": "Gal4S6S(b1-4)GlcNAc", "value": -0.274}, {"measurement": "glycan array binding signal (z-score)", "setting": "Gal6S(b1-4)Glc", "value": 0.775}, {"measurement": "glycan array binding signal (z-score)", "setting": "Gal6S(b1-4)Glc6S", "value": 1.13}, {"measurement": "glycan array binding signal (z-score)", "setting": "Gal6S(b1-4)GlcNAc", "value": 1.27}, {"measurement": "glycan array binding signal (z-score)", "setting": "Gal6S(b1-4)GlcNAc6S", "value": 0.166}, {"measurement": "glycan array binding signal (z-score)", "setting": "GalNAc(a1-3)Gal", "value": 0.869}, {"measurement": "glycan array binding signal (z-score)", "setting": "GalNAc(a1-3)GalNAc", "value": -0.202}, {"measurement": "glycan array binding signal (z-score)", "setting": "GalNAc(b1-3)Gal", "value": 0.793}, {"measurement": "glycan array binding signal (z-score)", "setting": "[12]", "value": 0.812}]}]}
